PubChem BioAssay AID504333 (National Center for Advancing Translational Sciences (NCATS), 2011)
About 16,000 (4.4%) of roughly 360,000 compounds were called active. The shares of active, inactive and inconclusive entries below differ from those in the screen. The call rests on the fitted dose curve; in most records, active means well fitted inhibition curve with a large enough effect; inconclusive means small, poorly fitted or top-dose-only effect; inactive means no such curve, though single readings can be large or run the other way. Potencies of inconclusive entries are doubtful fits and often do not repeat.

Each molecule was assayed against Bromodomain adjacent to zinc finger domain protein 2B (Homo sapiens) (UniProt Q9UIF8) (assay: qHTS Assay for Inhibitors of BAZ2B). Conditions: AlphaScreen BAZ2B-H3K14Ac peptide displacement; activity change, negative = inhibition: at 114 µM (top of the series) unless noted.
Summary of the method: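 Compounds, titrated to a top concentration of 110 uM, were incubated 30 min at room temperature with preformed BAZ2B/acetyl-K14 H3 peptide complex (50 nM each). Proximity signal was measured by AlphaScreen after 20 min with beads.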
Further: nearly all actives have a fitted effect of over 60% in size.
On the % scale 0 is the no-effect control and ±100 the full control effect; potency means the concentration at half of the fitted maximal effect; tags describe the fitted curve by direction and shape.

UniProt Q9UIF8, sequence (Q9UIF8 whole entry, looked up, the tested form may be a part): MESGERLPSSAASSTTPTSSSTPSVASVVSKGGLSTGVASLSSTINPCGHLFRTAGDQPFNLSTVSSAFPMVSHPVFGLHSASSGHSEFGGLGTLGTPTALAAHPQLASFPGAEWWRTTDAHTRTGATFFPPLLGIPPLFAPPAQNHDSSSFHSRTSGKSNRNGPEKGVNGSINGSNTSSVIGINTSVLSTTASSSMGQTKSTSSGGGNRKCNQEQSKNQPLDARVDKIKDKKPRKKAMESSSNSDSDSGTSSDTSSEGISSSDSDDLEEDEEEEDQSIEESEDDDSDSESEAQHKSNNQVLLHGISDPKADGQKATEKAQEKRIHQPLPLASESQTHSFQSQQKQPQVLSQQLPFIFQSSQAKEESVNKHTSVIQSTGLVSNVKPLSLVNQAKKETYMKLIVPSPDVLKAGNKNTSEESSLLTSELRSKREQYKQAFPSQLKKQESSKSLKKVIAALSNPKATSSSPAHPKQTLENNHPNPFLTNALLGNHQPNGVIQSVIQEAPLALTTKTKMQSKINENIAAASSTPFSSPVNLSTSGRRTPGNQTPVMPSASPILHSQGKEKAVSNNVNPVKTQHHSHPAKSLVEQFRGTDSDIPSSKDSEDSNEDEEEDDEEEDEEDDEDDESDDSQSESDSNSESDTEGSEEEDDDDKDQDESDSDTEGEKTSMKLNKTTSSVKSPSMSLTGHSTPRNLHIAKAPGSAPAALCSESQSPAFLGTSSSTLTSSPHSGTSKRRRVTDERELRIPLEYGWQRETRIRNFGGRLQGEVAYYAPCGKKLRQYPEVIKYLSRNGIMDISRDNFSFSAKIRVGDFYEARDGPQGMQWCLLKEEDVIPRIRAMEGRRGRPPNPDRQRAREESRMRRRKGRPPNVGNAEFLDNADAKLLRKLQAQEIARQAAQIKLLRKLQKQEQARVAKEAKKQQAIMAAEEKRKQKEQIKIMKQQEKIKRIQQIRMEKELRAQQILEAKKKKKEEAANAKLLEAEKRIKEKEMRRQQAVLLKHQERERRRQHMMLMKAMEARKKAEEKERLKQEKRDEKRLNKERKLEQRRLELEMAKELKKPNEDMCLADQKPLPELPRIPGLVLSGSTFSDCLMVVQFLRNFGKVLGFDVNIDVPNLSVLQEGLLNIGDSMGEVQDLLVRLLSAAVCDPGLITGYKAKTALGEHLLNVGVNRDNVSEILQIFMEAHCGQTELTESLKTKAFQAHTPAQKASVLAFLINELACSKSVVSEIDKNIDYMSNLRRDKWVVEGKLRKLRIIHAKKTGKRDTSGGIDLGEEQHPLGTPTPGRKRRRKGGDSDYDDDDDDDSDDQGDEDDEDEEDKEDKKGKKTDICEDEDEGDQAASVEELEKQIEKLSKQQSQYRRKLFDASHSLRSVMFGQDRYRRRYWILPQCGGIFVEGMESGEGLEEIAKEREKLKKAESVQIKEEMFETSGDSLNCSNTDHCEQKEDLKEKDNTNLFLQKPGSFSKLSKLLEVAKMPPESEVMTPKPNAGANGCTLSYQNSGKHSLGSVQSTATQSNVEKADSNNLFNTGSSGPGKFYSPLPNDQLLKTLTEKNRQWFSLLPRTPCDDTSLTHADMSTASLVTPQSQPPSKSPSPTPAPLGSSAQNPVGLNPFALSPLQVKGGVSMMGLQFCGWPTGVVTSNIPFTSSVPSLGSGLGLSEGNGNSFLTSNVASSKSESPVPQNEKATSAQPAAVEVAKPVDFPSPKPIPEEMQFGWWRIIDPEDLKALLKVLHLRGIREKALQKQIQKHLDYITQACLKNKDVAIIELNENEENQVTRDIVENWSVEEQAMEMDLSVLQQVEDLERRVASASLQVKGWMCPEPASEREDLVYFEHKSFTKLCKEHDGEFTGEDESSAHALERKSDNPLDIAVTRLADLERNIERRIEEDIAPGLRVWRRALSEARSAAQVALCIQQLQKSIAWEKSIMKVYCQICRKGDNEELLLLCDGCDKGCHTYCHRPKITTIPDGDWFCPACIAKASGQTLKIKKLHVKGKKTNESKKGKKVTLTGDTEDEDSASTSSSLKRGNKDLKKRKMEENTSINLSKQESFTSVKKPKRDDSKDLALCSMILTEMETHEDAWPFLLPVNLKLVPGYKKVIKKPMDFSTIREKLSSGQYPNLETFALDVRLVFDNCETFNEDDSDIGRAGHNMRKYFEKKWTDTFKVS

Row | SMILES | activity change, negative = inhibition | Potency
1 | COc1ccc(Cn2ccnc2SCC(=O)NCc2ccccc2)cc1 | inactive: -11% | 
2 | O=C(Cc1cccs1)Nc1nnc(SCc2ccc(Br)cc2)s1 |  | inconclusive: 79.4 µM [inhibitor, single point]
3 | O=C1/C(=C\c2cccc(O)c2O)SC(=S)N1Cc1ccccc1 |  | active: 20 µM
4 | CC(=O)c1oc2ccccc2c1NC(=O)COC(=O)c1ccc(-n2nc(C)cc2C)cc1 |  | inconclusive: 89.1 µM [inhibitor, single point]
5 | O=C(CN1CCN(CC(=O)Nc2ccccn2)CC1)Nc1ccccn1 |  | inconclusive: 89.1 µM [inhibitor, single point]
6 | CCN1CCN(CCOc2cccc(Cl)c2Cl)CC1 |  | active: 17.8 µM
7 | Cc1nnc(SCC2=C(C(=O)O)N3C(=O)C(NC(=O)Cn4nc(C(F)F)c(Cl)c4C)C3SC2)s1 (centres undefined) |  | inconclusive: 89.1 µM [inhibitor, single point]
8 | CC(C)C[C@H](NC(=O)OC(C)(C)C)C(=O)N/N=C/c1ccc2nccnc2c1 |  | inconclusive: 12.6 µM [inhibitor, single point]
9 | Cc1nc(NC(C)c2ccccc2)sc1C(=O)Nc1ccccc1 (centres undefined) |  | inconclusive: 50.1 µM [inhibitor, partial curve]
10 | Nc1ccc(N2CCN(c3cccc(Cl)c3)CC2)cc1 |  | active: 35.5 µM
11 | O=C(O)c1ccc2c(=O)[nH]c(CN3CCOCC3)nc2c1 |  | inconclusive: 100 µM [inhibitor, single point]
12 | CN(C)/C(CN1CCCCC1)=C1\N=C(c2ccccc2)OC1=O |  | inconclusive: 50.1 µM [inhibitor, partial curve]
13 | COCc1c(Br)c(C)nc(OCC(=O)N/N=C/c2ccco2)c1C#N |  | active: 89.1 µM
14 | O=S(=O)(c1cccs1)N1CCN(c2ccc(F)cc2)CC1 | inactive: -1.65% | 
15 | C/C=C/c1ccc(OCCCNC)c(OC)c1 |  | active: 50.1 µM
16 | Cn1cccc1/C=N/NC(=O)Cc1ccccc1 |  | inconclusive: 79.4 µM [inhibitor, single point]
17 | CC(=O)N1c2ccccc2C2(O)N=C(C)SC12 (centres undefined) |  | inconclusive: 79.4 µM [inhibitor, single point]
18 | Cc1cccc(-c2c3c(=O)n(C)c(=O)n(C)c3cn2C2CCCCC2)c1 |  | inconclusive: 89.1 µM [inhibitor, single point]
19 | O=C(Nc1ccc2oc(=O)ccc2c1)c1cc([N+](=O)[O-])ccc1N1CCOCC1 | inactive: -5.9% | 
20 | CCOc1ccc(-c2ccc(C=O)o2)c([N+](=O)[O-])c1 |  | inconclusive: 44.7 µM [inhibitor, partial curve]
21 | CCc1cccc(C)c1N=Cc1c(O)c2ccccc2oc1=O | inactive: 6.55% | 
22 | CCCNc1nc(NCc2ccccc2OC)c2cnn(C)c2n1 |  | inconclusive: 89.1 µM [inhibitor, single point]
23 | COc1ccccc1/C=C1\SC(=O)N(CC(=O)N(C)C2CCS(=O)(=O)C2)C1=O (centres undefined) | inactive: -15% | 
24 | O=C(O)C1CN(c2nc(Cl)ccc2[N+](=O)[O-])C1 |  | inconclusive: 79.4 µM [inhibitor, partial curve]
25 | COc1cccc(C(=O)N/N=C(\C)CC(=O)Nc2ccc(N(C)C)cc2)c1 |  | active: 56.2 µM

Row | SMILES | activity change, negative = inhibition | Potency
26 | CCOC(=O)C1=C(c2ccccc2)NC(=O)NC1c1cc(Cl)c(O)c(OC)c1 (centres undefined) | inactive: -19.6% | 
27 | O=C(c1ccc([N+](=O)[O-])cc1)N1CCSC1c1ccc(Br)cc1 (centres undefined) |  | inconclusive: 39.8 µM [inhibitor, partial curve]
28 | CCCCN=C(NNc1ccc(Br)cc1)C(=O)OCC |  | inconclusive: 44.7 µM [inhibitor, partial curve]
29 | Nn1c(C2CCCCC2)nc2ccccc2c1=O | inactive: 0.368% | 
30 | CC(CNC(=O)CN1C(=O)CCSc2ccccc21)c1ccccc1 (centres undefined) | inactive: -18% | 
31 | Cc1ccn2cc(CNS(=O)(=O)c3cccs3)nc2c1 |  | inconclusive: 89.1 µM [inhibitor, single point]
32 | O=C(O)c1cc(-c2ccccc2)n(-c2ccccc2)n1 | inactive: -2.34% | 
33 | O=S(=O)(c1ccccc1)c1nc(-c2cccs2)oc1NCc1cccnc1 |  | inconclusive: 89.1 µM [inhibitor, single point]
34 | CCOC(=O)C1CCN(c2cc3c(cc2NC(=O)c2ccccc2Br)n(C)c(=O)n3C)CC1 |  | active: 50.1 µM
35 | Cc1ccc(OCc2nnc(SCc3cc(=O)[nH]c4ccccc34)n2-c2ccccc2)cc1 | inactive: -34% | 
36 | COc1ccc(-n2nc3cc(C)c(N)cc3n2)cc1Cl |  | active: 79.4 µM
37 | COc1ccc(NC(=O)/C(C#N)=C\c2cc(C)n(-c3ccc(Oc4ccc([N+](=O)[O-])cn4)cc3)c2C)cc1 | inactive: 4.8% | 
38 | O=C(NCc1ccccc1)c1ccc2nc(-c3ccco3)c(-c3ccco3)nc2c1 |  | active: 50.1 µM
39 | CC(C)c1nnc(NC(=O)CS(=O)(=O)Cc2ccccc2)s1 |  | inconclusive: 79.4 µM [inhibitor, single point]
40 | CCOc1ccc(CCNC(=O)c2ccc3c(c2)NC(=O)C2CCCN32)cc1OCC (centres undefined) | inactive: -6.45% | 
41 | CCc1cccc(CC)c1NC(=O)c1cccc(N)c1 | inactive: -5.33% | 
42 | Cc1cccc(CN2CCN(c3nc4nonc4nc3NC3CC3)CC2)c1 |  | inconclusive: 89.1 µM [inhibitor, single point]
43 | COc1cccc(C(C[N+](=O)[O-])c2c(C)[nH]n(-c3ccccc3)c2=O)c1 (centres undefined) |  | inconclusive: 70.8 µM [inhibitor, single point]
44 | O=C1c2ccccc2C(=O)C1Cc1cccc2ccccc12 |  | inconclusive: 25.1 µM [inhibitor, single point]
45 | CCCC1CC(C)(C(=O)CSc2n[nH]c(-c3ccccc3)n2)OC1=O (centres undefined) |  | inconclusive: 89.1 µM [inhibitor, single point]
46 | CCOC(=O)CC(=O)CSc1ccc2nnc(-c3ccccc3)n2n1 | inactive: 5.64% | 
47 | COCCNC(=O)c1cccc(OC2CCN(Cc3ccc(Cl)c(F)c3)CC2)c1 | inactive: -6.58% | 
48 | CC(O)c1nc2ccccc2n1CCCc1ccccc1 (centres undefined) |  | inconclusive: 1.26 µM [inhibitor, full curve, poor fit]
49 | O=C(COC(=O)CCc1c[nH]c2ccccc12)NCc1ccccc1 |  | inconclusive: 89.1 µM [inhibitor, single point]
